# Assay results published in PubChem BioAssay AID1458 (National Center for Advancing Translational Sciences (NCATS), 2008).
# “And” between values parts separate entries of the source, which are not always exact repeats. Equal values may be shown once. About 5,900 (2.8%) of roughly 210,000 compounds were called active. The inconclusive results got no clear call from the source; some entries with a clear call stand among them for comparison. Calls come from the whole dose curve; as a rule, active = well fitted activation curve with a large enough effect; inconclusive = small, poorly fitted or top-dose-only effect; inactive = no such curve, though single readings can be large or run the other way. Potencies of inconclusive entries are doubtful fits and often do not repeat.
# Test: qHTS Assay for Enhancers of SMN2 Splice Variant Expression; note: nearly all actives have a fitted effect of over 55% in size; for activity change, positive = activation: % of control where 0% means no effect
# Details: HEK293 SMN2-luciferase splicing reporter, luminescence, 30-36 h; activity change, positive = activation: at 46.1 µM (top of the series)
# In short: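 HEK293 cells carry an SMN2 minigene-luciferase reporter in which exon 7 inclusion puts luciferase in frame. Cells were seeded at 2000 cells/well, attached for 10-12 hours, then exposed to compounds for 30-36 hours at 37C before ONE-Glo luminescence.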
# Potency is the fitted concentration of half-maximal effect; tags give direction and shape of the fitted curve.
Structure (SMILES),Potency,"activity change, positive = activation"
CCOC(=O)C1=C(c2ccccc2)NC(SCC(N)=O)=C(C#N)C1c1cccnc1 (stereo not given),"inconclusive: 0.0158 µM [activator, full curve]",–
CCCCCc1nnc(NC(=O)C2CCCO2)s1 (stereo not given),"inconclusive: 14.1 µM [activator, partial curve, poor fit]",–
CCC(=O)N(Cc1ccco1)c1nc(C(=O)Nc2ccc(Cl)cc2)c(C)s1,–,inactive: 4.34%
COc1ccc(CCN2CN(S(=O)(=O)c3ccccc3)c3nc4ccccc4nc32)cc1,"inconclusive: 0.0891 µM [activator, full curve, poor fit]",–
Cc1ccc(-c2cc(C(F)F)nc(NCC3CCCO3)n2)cc1 (stereo not given),"inconclusive: 5.62 µM [activator, single point]",–
CCOc1ccc(CCNC(=O)Cn2c(C)c3cnn(-c4ccccc4)c(=O)c3c2C)cc1,–,inactive: -1.14%
CC(=O)N(C)c1ccc(NC(=O)c2ccco2)cc1,"inconclusive: 14.1 µM [activator, partial curve]",–
O=C(O)CCCNS(=O)(=O)c1ccc2c(c1)OCCCO2,–,inactive: -9.63%
O=C(O)CCCCCCC1C(=O)NC(=O)N1CCC(O)C1CCCCC1 (stereo not given),–,inactive: -22.9%
NS(=O)(=O)c1ccc(Nc2nc(-c3ccc(O)cc3)cs2)cc1,"inconclusive: 35.5 µM [activator, partial curve, poor fit]",–
O=C(NC1CCCCC1)c1ccc(Br)o1,–,inactive: -6.97%
Cc1cc(C(=O)Nc2sc3c(c2C#N)CCCC3)no1,active: 6.31 µM,–
COc1ccc(OC)c(S(=O)(=O)Nc2cnc3ccccc3c2)c1,"inconclusive: 0.158 µM [activator, full curve, poor fit]",–
Cc1c(C(=O)NCc2ccccc2Br)oc2ccc3c(c12)C(=O)CC(C)(C)O3,–,inactive: 11.5%
O=C(COC(=O)CN1C(=O)C(=O)c2ccccc21)OCN1C(=O)c2ccccc2C1=O,–,inactive: -15.5%
O=C(Cn1c(=O)n(Cc2ccco2)c(=O)c2cc(Cl)ccc21)NCC1CCCO1 (stereo not given),"inconclusive: 2 µM [activator, full curve]",–
COc1ccc2c(c1)CCc1c(C(=O)NCc3ccco3)noc1-2,active: 7.08 µM,–
COc1ccc(/C=C/C(=O)OCC(=O)Nc2ccc(Cl)c(S(=O)(=O)N(C)C)c2)cc1OC,–,inactive: -1.06%
O=c1cc(N2CCOCC2)oc2c(-c3ccccc3)cccc12,"inconclusive: 5.62 µM [activator, partial curve] and inconclusive: 14.1 µM [activator, single point] and inconclusive: 12.6 µM [activator, single point]",–
COC(=O)c1ccc(C(NC(=O)OCc2ccccc2)/C(=C/[C@@H](C)C(=O)NCc2ccc(S(C)(=O)=O)cc2)c2cccnc2)cc1 (stereo not given in full),–,inactive: -6.44%
CCCCOc1ccccc1/C=N/NC(=O)CC#N,"inconclusive: 3.98 µM [activator, partial curve]",–
CCCN(CCC)c1ncnc2c1cnn2-c1ccc(OC)cc1,"inconclusive: 28.2 µM [activator, single point]",–
CN1CCN(C(=O)/C(=C\c2cccc([N+](=O)[O-])c2)NC(=O)c2cccs2)CC1,"inconclusive: 5.62 µM [activator, single point]",–

Structure (SMILES),Potency,"activity change, positive = activation"
CCOC(=O)CNc1ccc(C(=O)OCC)cc1[N+](=O)[O-],–,inactive: 7.96%
COc1cc(C(=O)Nc2ccc(S(=O)(=O)N3CCc4ccccc43)cc2)cc(OC)c1OC,"inconclusive: 12.6 µM [activator, single point]",–
CCCCN=C(C)c1c(O)c2ccccc2oc1=O,"inconclusive: 15.8 µM [activator, single point]",–
O=C(O)C1CN(CCCP(=O)(O)O)CCN1 (stereo not given),–,inactive: -3.62%
CCOC(=O)c1cnc(SCc2cccc(C)c2)nc1N,"inconclusive: 25.1 µM [activator, single point]",–
CC(C)c1ccc(/C=C(\C#N)c2nc(-c3ccc(O)cc3)cs2)cc1,–,inactive: -22.9%
CCOC(=O)c1cnc(SCC(=O)c2ccccc2)nc1N,active: 12.6 µM,–
FC(F)Oc1ccc(NC(=S)NCc2ccccc2)cc1Cl,"inconclusive: 3.16 µM [activator, full curve, poor fit]",–
O=C(Cc1ccccc1)N/N=C/c1ccc2c(c1)OCO2,active: 15.8 µM,–
CCNC(=O)CSc1nnc(-c2ccccc2Br)n1-c1cccc(C(F)(F)F)c1,"inconclusive: 6.31 µM [activator, partial curve, poor fit]",–
O=C1CCCN1CCC1CCN(C(=O)Nc2ccccc2)CC1,"inconclusive: 3.55 µM [activator, partial curve]",–
CCOC(=O)c1ccc(-n2ncc(C(=O)OCC)c2N)cc1,"inconclusive: 1 µM [activator, partial curve, poor fit]",–
O=C1CC(c2cccnc2)c2cc3c(cc2N1)OCO3 (stereo not given),"inconclusive: 5.62 µM [activator, single point]",–
O=c1c2ccccc2nc2ccc(NCc3cccs3)nn12,active: 15.8 µM,–
N#Cc1ccc(OCCOCCNC2CCCC2)cc1,"inconclusive: 0.0089 µM [activator, full curve, poor fit]",–
CN1CCN(Cc2ccc(-c3ccc(Cl)cc3)o2)CC1,"inconclusive: 0.0126 µM [activator, full curve, poor fit]",–
COc1ccc(CCNC(=O)CSc2ccc(-c3cccs3)nn2)cc1OC,–,inactive: -23.2%
CCCCCN(C(=O)NC(=O)Nc1ccc(C)cc1C)S(C)(=O)=O,"inconclusive: 35.5 µM [activator, single point]",–
O=C(Nc1ccc(Cl)cn1)c1cccnc1,"inconclusive: 10 µM [activator, partial curve]",–
CC(=O)c1sc(N/N=C\c2ccc(Br)cc2)nc1C,"inconclusive: 35.5 µM [activator, single point]",–
Cc1ccn2c(Nc3ccc4c(c3)OCCO4)c(-c3ccc(N(C)C)cc3)nc2c1,"inconclusive: 12.6 µM [activator, single point]",–
CC(C)NC(=O)C(=O)c1cn(C)c2ccccc12,"inconclusive: 0.0708 µM [activator, full curve, poor fit]",–
